± gives the standard deviation of the averaged measurements. This is one part of the list.
System: PfAP2-EXP AP2 domain (GST-tagged)
Test: gcPBM binding intensity (ln(normalized median fluorescence intensity)); higher = stronger DNA binding
Outline: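 Binding of GST-tagged P. falciparum DNA-binding domains, expressed in E. coli and used at about 25 μg on average, was carried out for 1 h in 1× PBS containing 1% milk, 0.2 mg/ml BSA, 0.5% salmon testes DNA and 0.03% Triton X-100. The target was an Agilent 4 × 180k array of primer-extended double-stranded 36-bp intergenic genomic probes plus negative controls, read with Alexa488 anti-GST antibody at 488 nm. Binding intensity is the highest Masliner-normalised natural-log median intensity across replicate spots of either probe orientation.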

Sequence	gcPBM binding intensity (ln)
TTTTTTGTTATTGGCGTGCACATATCCATTTATAGT	9.22 ± 0.071
CTTTTAATATTAAGATGTACTTAGAATTTTTTTTTT [XGTACX_site8338]	8.29 ± 0.45
AACAGCATATCACATTTCTTCAAAAAAAAATAAAAT [CACACA_negctrl_site733]	8.37 ± 0.5
TGTAGAGCGCAAAGTAGTACTACAAATTATGGAGGG [XGTACX_site3022]	9.71 ± 0.74
ATATATATAAATAATTGTACTTAAAAAAAAAAAAGG [XGTACX_site6847]	8.5 ± 0.23
GATTAATTTAAAAAATGTACATTTTATTGTATAACC [XGTACX_site5539]	8.47 ± 0.31
TAAACACCCATATAAACACACATACATACATACATA [CACACA_site5383]	8.77 ± 0.39
ACAATATGTATATATATATATATGCAAATGTATAAA [CACACA_negctrl_site53]	8.59 ± 0.31
CCAAGAAACCAAAAAAGTACATACATGGTTATAATT [XGTACX_site4249]	8.91 ± 0.31
TGAACTCATAGATTTAGTACATATATAAAAAAATTC [XGTACX_site1692]	8.32 ± 0.33
ATATTAAATTCAATTTAATGTTTTGTGAATTTTAGA [CACACA_negctrl_site1421]	8.28 ± 0.39
TTAAATGGAAAAATATGTACATATATATATATATTT [XGTACX_site2286]	8.52 ± 0.22
TATACACGCGGACACACACACACACGCAAAAAAAAA [CACACA_site6377]	8.8 ± 0.47
ATAAGCCATTTTTGTGGTACATAAAATAGATATATA [XGTACX_site5175]	8.35 ± 0.35
TTTACACCGTAATATGCATGTGTGTATATATTTTTG [TGCATGCA_site186]	8.47 ± 0.35
TAAAAACCAAAGAAAAGTACAAATTTAAATGAGAAA [XGTACX_site7450]	8.86 ± 0.57
CATCTTAGTTTGAGTTGTACAATATTTATAAAAATA [XGTACX_site693]	8.63 ± 0.35
ACAAGTTTAACATTTCGTACTTATTGTGTTTTTTTT [XGTACX_site5487]	8.76 ± 0.51
GCAGTATTTCGGAACACACAAACATAAATATGTATT [CACACA_site2316]	8.45 ± 0.42

Sequence	gcPBM binding intensity (ln)
ATATATATATATGTATGTACATATTTTTTTTAACAC [XGTACX_site8475]	9.93 ± 0.4
ATATATATTTAAAGATGTACATAATGAAATGGTTAT [XGTACX_site4706]	8.92 ± 0.3
AGCACAGACGGACACACACACACACCCACAGACACA [CACACA_site4358]	8.49 ± 0.49
AAATTTATTTATTATAGTACACTTAATACTACCCAA [XGTACX_site41]	8.3 ± 0.35
GCACAATTTACACTTAAACACACAAAAAAAAATTAT [CACACA_site8642]	8.52 ± 0.52
AAATTAGACTATAATACACACATAAAAAAAAAAAAA [CACACA_site6155]	8.4 ± 0.57
AGATATCTTGTGAAATAAAAAAAATAATTGCTTATA [CACACA_negctrl_site798]	8.13 ± 0.48
AAGGCAAACAAACACACACACATATATACCTATATA [CACACA_site5203]	8.55 ± 0.51
AGAAATGAAATCCAAAAACGAGGAACCAATAACGCA [CACACA_negctrl_site1758]	8.89 ± 0.56
TCTTATCCATATATTACACACTATATATAGAAATTA [CACACA_site291]	8.62 ± 0.46
ATATTATATTATTAATGTACATATATATAATTTTAA [XGTACX_site4974]	8.28 ± 0.38
TACATACATACATACACACACACATATATATATATA [CACACA_site42]	10 ± 0.28
TAGGTCCTCATTTTATGTACATAAAGAAATATGATT [XGTACX_site4138]	8.57 ± 0.35
AAAGAAAAAAAAATTACACACATATATTATAGATAT [CACACA_site7495]	8.4 ± 0.33
TCCTTCGAAACTAAAATTCATTTAAAATATTGATAT [CACACA_negctrl_site369]	8.16 ± 0.52
ATATATGCTAATATATGTACTGATTATATCTCTTCA [XGTACX_site7156]	8.2 ± 0.31
TATTTATAGATATATACACACATATACATATTGTTT [CACACA_site7611]	8.35 ± 0.31
ATATAAACATTTAGTAATCCATATAGGTACTACTGA [CACACA_negctrl_site1249]	8.13 ± 0.33
AAAAAAAATATATAAACACACATATTTATATACGCA [CACACA_site1631]	8.3 ± 0.42

Sequence	gcPBM binding intensity (ln)
TAGTATTAAATATATACACACATATATACATATAGA [CACACA_site2154]	8.16 ± 0.39
TTAATTTTTTTTTCTTGTACACACTATTTTATAATT [XGTACX_site8783]	8.86 ± 0.4
GCAGCAGCATTTTCAGTGCATTATTATATTGTTCAT [GTGCAC_site9926]	8.69 ± 0.22
GTGTACTTTTAAATAGTGCATTTTACAATAATAAAA [GTGCAC_site9653]	8.69 ± 0.092
GTTGCACAATGTTACACACACAATATATATCGTTAA [CACACA_site1275]	8.71 ± 0.31
TATTATAATACTTATTGTACTTTTAGGTTAATTTAT [XGTACX_site995]	8.48 ± 0.35
GTAATAAAATGACATACATGCATTACAATTATGTAA [TGCATGCA_site220]	8.4 ± 0.22
CCCTTTTTTTTTTAATGTACATATAATTATATATTT [XGTACX_site8568]	8.9 ± 0.38
GGAAACCTTTTTTTTACACACAATATATTAAGACTT [CACACA_site4899]	8.38 ± 0.41
AATTGTACGTAGGGGTATAAAAGCTTAAAAATGGGG [CACACA_negctrl_site1392]	9.53 ± 0.57
AAAGCAAAAGGAAAATAACCAACCCTAATTAACACA [CACACA_negctrl_site530]	8.6 ± 0.55
ACCTAATATTATTAAACATGCACATTTGCATAAATA [TGCATGCA_site870]	8.61 ± 0.18
AAATAATTCAAAAAAACACACAAATTACAAAATAAA [CACACA_site269]	8.67 ± 0.42
CAAAATGAAAGGAAAAGTACATTTAAATGAATAAAT [XGTACX_site8241]	8.93 ± 0.47
TAAAAATATATTATATGTACGTATAACAATGTATGA [XGTACX_site8606]	8.71 ± 0.35
GTATAATATTCATATTCACACATTAAAATATATTTA [CACACA_site4879]	8.49 ± 0.49
AAAAAAAAAAAAAAAACACACATGTATAATATAATA [CACACA_site2209]	8.64 ± 0.3
TTATTATTAAAACACACACACAAAAAAAAAAAAAAA [CACACA_site1480]	8.27 ± 0.61

Source: the supplement of paper PMC11417369
